Laboratory results published in PubChem BioAssay AID652104 (National Center for Advancing Translational Sciences (NCATS), 2013).
The campaign covered roughly 410,000 compounds. About 7,200 (1.8%) were called active. Inconclusive results, whose numbers are uncertain, are shown with a selection of clear calls. The call rests on the fitted dose curve; in most records, active means well fitted activation curve with a large enough effect; inconclusive means small, poorly fitted or top-dose-only effect, or another doubt; inactive means no such curve, though single readings can be large or run the other way. No potency is given beside an inconclusive call; the fits are too rough.

Assay: qHTS of TDP-43 Inhibitors; further: nearly all actives have a fitted effect of over 50% in size; on growth rescue (activation): % of control where 0% means no effect
Conditions: TDP-43 expressing yeast growth rescue, BacTiter-Glo, 24 h; growth rescue (activation): at 46.1 µM (top of the series) unless noted
In short: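 Yeast cells expressing TDP-43 under galactose induction are exposed to compounds for 24 hr at 30 deg C. BacTiter-Glo luminescence measures growth, so protective compounds score as activators.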
Potency means the concentration at half of the fitted maximal effect; tags describe the fitted curve by direction and shape.

Question: Which Potency does the source give for CN(C)c1cccc(NC(=O)C2Cc3c(-c4ccc(Cl)cc4)ccnc3O2)c1 (stereo not drawn) here?
Answer: inconclusive [activator, single point]

Question: With Cc1ccccc1NC(=O)CC(NCc1cccnc1)C(=O)O (stereo not drawn) as the compound, how does the Potency read?
Answer: inconclusive [activator, single point]

Question: For Cc1cc(/C=C(\C#N)C(=O)NCc2ccccc2)cc(C)c1O, which “growth rescue (activation)” value is on record?
Answer: inactive: -4.29%

Question: Which Potency does the source give for CCCCn1nnnc1C(c1cc2ccccc2o1)N1CCCN(C(=O)OC(C)(C)C)CC1 (stereo not drawn) here?
Answer: inconclusive [activator, partial curve]

Question: With COc1ccc(-n2nc(C(=O)Nc3ccccn3)c3c4ccccc4n(C)c3c2=O)cc1 as the compound, how does the Potency read?
Answer: inconclusive [activator, partial curve, poor fit]

Question: Which Potency does the source give for COc1ccc(NC(=O)c2scc(S(=O)(=O)C(C)C)c2N)cc1 here?
Answer: inconclusive [activator, single point]

Question: With COc1ccccc1OCC(=O)NCc1cccs1 as the compound, how does the Potency read?
Answer: inconclusive [activator, single point]

Question: For O=C(c1ccc2c3c(cccc13)CC2)C1CCCN(C(=O)c2cccnc2)C1 (stereo not drawn), which Potency is on record?
Answer: inconclusive [activator, partial curve]

Question: With CCOC(=O)c1c(N)nn(C(=O)C(C)C)c1-c1ccc(OC)cc1 as the compound, how does the Potency read?
Answer: inconclusive [activator, single point]

Question: Which Potency does the source give for Cc1cccc(N(C)c2nc3ccccc3c3nnc(C)n23)c1 here?
Answer: active: 22.4 µM

Question: With Cc1ccc(CC2CC(=O)N(c3ccc4c(c3)OCCO4)C2=O)cc1 (stereo not drawn) as the compound, how does the Potency read?
Answer: inconclusive [activator, single point]

Question: For O=C(NCCc1ccc(F)cc1)c1ccc(S(=O)(=O)N2CCCCC2)cc1, which Potency is on record?
Answer: inconclusive [activator, partial curve]

Question: Which Potency does the source give for Cc1c(O)c(=O)n(-c2ccccc2)n1C here?
Answer: inconclusive [activator, partial curve]

Question: With CCOc1ccccc1N=C1SCC(C)N1C(=O)C1CCN(c2ncnc3sc(C)c(C)c23)CC1 (stereo not drawn) as the compound, how does the Potency read?
Answer: active: 20 µM

Question: For CN(C)c1ccc(CNC(=O)c2ccc(Cn3c(SCc4ccccc4)nc4cccnc43)cc2)cc1, which Potency is on record?
Answer: inconclusive [activator, partial curve]

Question: With Cc1ccccc1CNC(=O)c1ccc2c(c1)c(C)c(C)n2C as the compound, how does the Potency read?
Answer: inconclusive [activator, partial curve]

Question: With COc1ccc(S(=O)(=O)NCc2csc(-c3cccnc3)n2)cc1 as the compound, how does the Potency read?
Answer: inconclusive [activator, single point]

Question: For CCc1c(C2(O)CCCCC2)[nH]c2ccc(C(F)(F)F)cc12, which growth rescue (activation) is on record?
Answer: inconclusive: -90.3% [activator]

Question: For O=C1c2ccccc2NC(c2ccc(Cl)cc2Cl)N1Cc1ccccc1 (stereo not drawn), which “growth rescue (activation)” value is on record?
Answer: inactive: 13.4%

Question: For CN(C)c1nn(C(=O)Nc2cccc(C(F)(F)F)c2)cc1-c1ccccc1, which growth rescue (activation) is on record?
Answer: inconclusive: 30.2% [activator]

Question: With COc1cccc(-c2sc3ccccc3c2-c2ccc(OCCN3CCCC3)cc2)c1 as the compound, how does the Potency read?
Answer: inconclusive [activator, single point]

Question: Which Potency does the source give for COC(=O)CC1(C(=O)OC)Oc2ccc(Br)cc2C(=O)N1c1cccc(Cl)c1Cl (stereo not drawn) here?
Answer: inconclusive [activator, single point]

Question: For CCc1cccc(NC(=O)COC(=O)c2cn(CC)c3nc(C)ccc3c2=O)c1, which Potency is on record?
Answer: inconclusive [activator, partial curve]

Question: With Cc1ccc(NC(=O)CSc2ccccc2)cc1S(=O)(=O)N1CCCCC1 as the compound, how does the Potency read?
Answer: inconclusive [activator, partial curve, poor fit]

Question: For O=C(CSc1nc(-c2ccccc2)c(-c2ccccc2)o1)N1CCCCC1, which “growth rescue (activation)” value is on record?
Answer: inactive: 0%

Question: Which Potency does the source give for N#Cc1c(Nc2ccccc2)[n+]([O-])c2ccc(Cl)cc2[n+]1[O-] here?
Answer: inconclusive [activator, single point]

Question: For Cc1cc(C(=O)Nc2ccc([N+](=O)[O-])cn2)cs1, which Potency is on record?
Answer: inconclusive [activator, full curve, poor fit]

Question: For O=C(Nc1ccc(Cl)c(Cl)c1)N1CCCCCC1, which “growth rescue (activation)” value is on record?
Answer: inactive: 7.89%

Question: With O=C(CS(=O)(=O)c1cccc2nsnc12)N1CCN(c2cccc(Cl)c2)CC1 as the compound, how does the Potency read?
Answer: inconclusive [activator, single point]

Question: Which Potency does the source give for CC(C)Cn1cnc2c(SCc3ccccc3F)nc(N)nc21 here?
Answer: inconclusive [activator, single point]

Question: For Cc1cc(C)n(-c2nc(Nc3ccccc3C(F)(F)F)nc(-n3nc(C)cc3C)n2)n1, which Potency is on record?
Answer: active: 20 µM

Question: Which Potency does the source give for C=CCn1c(O)c(N=NC(=S)Nc2ccc(OC)c(Cl)c2)c2ccccc21 here?
Answer: inconclusive [activator, full curve]

Question: Which Potency does the source give for O=c1cc(-c2ccccc2)[nH]n1-c1nc2ccccc2[nH]1 here?
Answer: inconclusive [activator, single point]

Question: For O=C(CN1C(=O)COc2ccccc21)c1cccc(Cl)c1, which Potency is on record?
Answer: inconclusive [activator, single point]

Question: Which Potency does the source give for CCCCOc1cccc(C(=O)Nc2ccccc2N2CCCC2)c1 here?
Answer: inconclusive [activator, single point]

Question: With COc1ccccc1-n1nnnc1S(=O)(=O)Cc1ccc(Cl)cc1 as the compound, how does the Potency read?
Answer: inconclusive [activator, full curve]

Question: For Cc1cc(C)c(Nc2nc3ccccc3n3c(C)nnc23)c(C)c1, which “growth rescue (activation)” value is on record?
Answer: inactive: 15.2%

Question: With COc1ccc(-c2cc3c(c4c2ccn4C)C2CCC3C2)cn1 (stereo not drawn) as the compound, how does the Potency read?
Answer: active: 20 µM

Question: Which Potency does the source give for COc1ccc2c(c1OC)C(=O)N1N=C(c3ccc(Cl)cc3)CC21 (stereo not drawn) here?
Answer: active: 35.5 µM

Question: With O=C(Nc1ccc2c(c1)OCO2)N1CCN(c2ccccc2Cl)CC1 as the compound, how does the Potency read?
Answer: inconclusive [activator, single point]

Question: Which “growth rescue (activation)” value does the source give for CCOc1ccc(Nc2oc(-c3ccc(COc4ccc(OC)cc4)o3)nc2C#N)cc1 here?
Answer: inactive: 9.17%

Question: For Cc1cc(Nc2ccccc2F)n2nc(-c3ccccc3)nc2n1, which Potency is on record?
Answer: inconclusive [activator, full curve, poor fit]

Question: Which Potency does the source give for CCOC(=O)c1csc(NC(=O)CC2CCCC2)n1 here?
Answer: inconclusive [activator, single point]

Question: Which “growth rescue (activation)” value does the source give for Cc1ccc(S(=O)(=O)Nc2c(C)nn(C)c2C)c(C)c1 here?
Answer: inactive: -22.4%

Question: With Cc1cc(N2CCC(C)CC2)nc(-c2ccccc2O)n1 as the compound, how does the Potency read?
Answer: inconclusive [activator, partial curve]

Question: For COc1ccc(C(=O)O/N=C(\N)c2ccc(OC)c(OC)c2)cc1, which Potency is on record?
Answer: inconclusive [activator, partial curve]

Question: With Cc1ccc(C)c2nc3sc(C(=O)N4CCCc5ccccc54)c(N)c3cc12 as the compound, how does the “growth rescue (activation)” value read?
Answer: inactive: -4.82%

Question: With CCN(CC)C(=O)Cn1c(=O)cc(C)c2c(C)nn(-c3cccc(Cl)c3C)c21 as the compound, how does the “growth rescue (activation)” value read?
Answer: inactive: 3.06%

Question: With Cc1onc(-c2ccccc2)c1C(=O)OCC(=O)NC(C)c1ccc(Cl)cc1 (stereo not drawn) as the compound, how does the Potency read?
Answer: inconclusive [activator, partial curve]

Question: For CC(=O)Nc1ccc(S(=O)(=O)N2CCCC3CCCCC32)cc1 (stereo not drawn), which Potency is on record?
Answer: inconclusive [activator, single point]

Question: For Cc1ccc(S(=O)(=O)n2nc(C)c(S(=O)(=O)N3CCCCCC3)c2C)cc1, which Potency is on record?
Answer: inconclusive [activator, single point]

Question: With Cc1nc(Nc2ccc(O)cc2)c2c3c(sc2n1)CCCC3 as the compound, how does the Potency read?
Answer: inconclusive [activator, single point]

Question: With CS(=O)(=O)Nc1ccccc1C(=O)OCC(=O)N1CCC(c2ccccc2)=N1 as the compound, how does the Potency read?
Answer: active: 25.1 µM

Question: With CN(C)c1nc(C(=O)OCCO)nc(N(C)C)n1 as the compound, how does the Potency read?
Answer: inconclusive [activator, partial curve]

Question: With CCCCC1=CC2=CC(=O)C(C)(OC(=O)c3cccs3)C(=O)C2=CO1 (stereo not drawn) as the compound, how does the growth rescue (activation) read?
Answer: inconclusive: -64% [activator]

Question: Which “growth rescue (activation)” value does the source give for CCOc1ccc(CNC(=O)c2cccc(NC(=O)N3CCSc4ncccc43)c2)cc1OC here?
Answer: inactive: 6.79%

Question: Which Potency does the source give for Cc1nnc(N/N=C/c2cc([N+](=O)[O-])c(N3CCC(C)CC3)cc2N2CCC(C)CC2)n1N here?
Answer: inconclusive [activator, partial curve]

Question: With Cc1cc(C)c(NC(=O)CN(C2CCCCC2)C2CCCCC2)c(C)c1 as the compound, how does the “growth rescue (activation)” value read?
Answer: inactive: -14.7%

Question: With COc1ccc(Br)cc1C1C(C(=O)Nc2ccc(C)cc2C)=C(C)Nc2ncnn21 (stereo not drawn) as the compound, how does the Potency read?
Answer: inconclusive [activator, partial curve, poor fit]

Question: Which “growth rescue (activation)” value does the source give for CC(C)(C)N1CC(C(=O)Nc2ccc(C(N)=O)cc2)CC1=O (stereo not drawn) here?
Answer: inactive: 16.4%

Question: With CCc1cccc(NS(=O)(=O)c2c(C)nc3scc(C)n3c2=O)c1 as the compound, how does the Potency read?
Answer: inconclusive [activator, single point]

Question: For COc1ccc(-n2c(=O)c3c4c(sc3n3c(=S)[nH]nc23)CCCC4)cc1, which Potency is on record?
Answer: inconclusive [activator, single point]

Question: With Cc1cc(Cl)ccc1C(=O)C1CCCN(C(=O)c2cncs2)C1 (stereo not drawn) as the compound, how does the Potency read?
Answer: inconclusive [activator, full curve]

Question: Which Potency does the source give for CC1CCN(C(=O)c2cc(-c3ccccc3O)on2)CC1 here?
Answer: inconclusive [activator, full curve]

Question: For COc1cc(NC(=O)COc2cc(O)c3c(c2)OC(C)(C)CC3=O)cc(OC)c1, which Potency is on record?
Answer: inconclusive [activator, single point]

Question: Which Potency does the source give for COc1cccc(-c2csc(Nc3ccc(Oc4ccccc4)cc3)n2)c1 here?
Answer: inconclusive [activator, partial curve]

Question: With CC(=O)c1cccc(NC(=O)c2cc(Cl)sc2Cl)c1 as the compound, how does the Potency read?
Answer: inconclusive [activator, partial curve]

Question: Which Potency does the source give for Cc1csc(NC(=O)c2ccc(Br)s2)n1 here?
Answer: inconclusive [activator, single point]
